The values below come from ChEMBL document CHEMBL4888484, “Replenishing the malaria drug discovery pipeline: Screening and hit evaluation of the MMV Hit Generation Library 1 (HGL1) against asexual blood stage Plasmodium falciparum ,using a nano luciferase reporter read-out” (2022).

SMILES strings stand for the structures. The whole screen tested about 150,000 compounds, of which about 540 (0.36%) showed an effect of 50% or more. The list shows a part of the results.

The subject of this test is Plasmodium falciparum. Description: Primary screen in NF54 nanoGlo assay, in single point, at 2uM, 72h; a lower Z score goes with more inhibition. Format: functional, Erythrocyte. As to conditions: timepoint 72 hour.
For `CC(C)NC(=O)N[C@H]1CCN2C(=O)c3cc(-c4ccc5c(c4)OCO5)ccc3NC(=O)[C@@H]2C1`, the % Inhibition (usually the change of the read-out against control, counted positive when it falls) is reported as 17% and the Z score was -1.96.

For `O=C(Nc1cccc(F)c1)c1nnc(COCC(=O)N2CCOCC2)s1`, the “% Inhibition” value is recorded as -6% and the Z score is reported as 0.9.

As for `Cc1ccccc1CNC(=O)[C@H]1CCCN(c2nnc3ccccn23)C1`, the “% Inhibition” value was -12% and the Z score is 1.27.

For `c1ccc(Cc2noc(C3CNC3)n2)cc1`, the “% Inhibition” value is -4% and the Z score was 0.78.

With `O=C(c1cc(C2CC2)on1)N1CCc2cc(-c3ccncc3)ccc21`, the “% Inhibition” value is -4% and the Z score is on record as 0.7.

With `Cc1cccc(CN(Cc2ccc3c(c2)OCO3)Cc2nc(C(=O)NCCN(C)C)co2)c1`, the “% Inhibition” value is on record as -3% and the Z score is 0.63.

In the case of `Cc1cc(-c2cc(O)cc(CC[C@H]3CCCCN3)c2)ccn1`, the “% Inhibition” value is 84% and the Z score is -8.44.

As for `N#Cc1ccc(C(=O)NS(=O)(=O)CC2CCC2)cn1`, the “% Inhibition” value is -3% and the Z score came out at 0.41.

Take `C[C@]1(C(=O)NCC2CCC(c3nc4ccccc4[nH]3)CC2)CCCNC1` (stereo partly specified): the “% Inhibition” value is 0% and the Z score is -0.02.

Take `Cc1nnc(-c2cc(CCC(C)C)n(-c3cccc(C(=O)N4CC(C)CC(C)C4)c3)n2)o1` (stereo unspecified): the “% Inhibition” value was -16% and the Z score came to 1.95.

As to `Cc1noc(C)c1S(=O)(=O)NC[C@H](O)c1cccn1C`, the “% Inhibition” value was -13% and the Z score is 2.26.

Take `CC(c1nnnn1C)N1CCCC1CC(=O)c1ccc(F)cc1` (stereo unspecified): the “% Inhibition” value was -3% and the Z score is reported as 0.38.

Regarding `O=C(Nc1cccc(F)c1Cl)N1C[C@H](Cc2ccccc2)[C@@H](O)C1`, the “% Inhibition” value is recorded as -8% and the Z score was found to be 1.03.

As for `CNC(=O)C[C@H]1CCN(c2nc(C)cc(C)n2)C1`, the “% Inhibition” value was -15% and the Z score worked out at 1.45.

`Cc1csc(NC(=O)c2sc3nc(-c4ccncc4)ccc3c2N)n1`: the “% Inhibition” value was -10% and the Z score was 1.42.

Take `O=C(Cc1cc(F)cc(F)c1)N[C@H]1CCOC[C@@H]1O`: the “% Inhibition” value is -9% and the Z score was determined as 1.61.

As to `CCCC[C@H](NCC(=O)NCCOC)c1ccc(Cl)cc1Cl`, the “% Inhibition” value was -15% and the Z score is given as 1.32.

As for `Cc1cc(C)cc(NC(=O)C[C@H]2CN(C(=O)c3ccc[nH]3)CCS2(=O)=O)c1`, the “% Inhibition” value is -14% and the Z score is 1.47.

Turning to `CCc1nn(C)c(CC)c1CC(=O)N1CC[C@H](C(=O)N(C)C)C1`, the “% Inhibition” value is -12% and the Z score amounted to 2.21.

As for `Cc1c(Cl)cccc1S(=O)(=O)N1CCC[C@H](c2nnc(-c3ccsc3)o2)C1`, the “% Inhibition” value is listed as -12% and the Z score was found to be 1.37.

Take `CCOC(=O)N[C@@H](CNc1cc(C)ccn1)C1CC1`: the “% Inhibition” value is recorded as -8% and the Z score worked out at 0.88.

Regarding `C[C@H](NC(=O)c1cc2n(n1)CCCN(Cc1ccc(F)cc1)C2=O)C(=O)N1CCOCC1`, the “% Inhibition” value is reported as -11% and the Z score is 1.72.

As to `COc1ccccc1[C@H](CO)NC(=O)CN1C(=O)Cc2ccccc21`, the “% Inhibition” value worked out at 29% and the Z score was -3.24.
